# In all, about 33,000 sequences were measured (“E-score (-0.5 to 0.5)”: median about -0.054, highest 2% from about 0.35 on). The list shows a part of the results.
# Molecular target: T1, Stb5 (UniProt P38699)
# T1 sequence: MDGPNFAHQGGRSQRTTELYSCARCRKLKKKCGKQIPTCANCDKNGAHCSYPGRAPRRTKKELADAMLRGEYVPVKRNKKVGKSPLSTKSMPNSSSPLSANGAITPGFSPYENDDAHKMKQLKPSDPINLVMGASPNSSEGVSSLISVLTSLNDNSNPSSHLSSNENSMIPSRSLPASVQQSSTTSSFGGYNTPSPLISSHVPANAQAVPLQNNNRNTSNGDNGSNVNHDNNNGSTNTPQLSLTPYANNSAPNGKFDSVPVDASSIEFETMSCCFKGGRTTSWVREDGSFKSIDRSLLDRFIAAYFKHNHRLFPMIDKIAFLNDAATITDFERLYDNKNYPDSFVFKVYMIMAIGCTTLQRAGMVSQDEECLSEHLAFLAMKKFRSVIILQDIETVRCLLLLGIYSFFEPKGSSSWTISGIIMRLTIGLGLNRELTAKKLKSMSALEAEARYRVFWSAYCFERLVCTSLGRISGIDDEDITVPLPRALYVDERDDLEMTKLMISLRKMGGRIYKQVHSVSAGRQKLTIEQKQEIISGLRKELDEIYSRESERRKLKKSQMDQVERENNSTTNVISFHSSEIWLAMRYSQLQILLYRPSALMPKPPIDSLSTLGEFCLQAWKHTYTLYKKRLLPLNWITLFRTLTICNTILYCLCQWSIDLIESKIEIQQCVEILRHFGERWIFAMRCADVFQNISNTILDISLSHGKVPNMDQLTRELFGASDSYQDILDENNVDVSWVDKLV
# Test: PBM E-score (8-mer binding enrichment) (E-score (-0.5 to 0.5)); higher = stronger / more preferred TF binding; most listed sequences are background and not binding sites
# Conditions: protein concentration: 200 nM; construct: GST-full length
# Procedure, shortened: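 Yeast transcription factors, full-length or as DNA-binding domains, were expressed with a GST tag using PURExpress in vitro transcription/translation. At about 100-200 nM they were applied to universal all-10-mer Agilent arrays, double-stranded by primer extension on fresh or once-stripped slides. Fluorescent anti-GST detected bound protein, and masliner normalised the scans. E-scores for ungapped eight-base words, pooled with reverse complements, came from the Universal PBM Analysis Suite.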
row,Sequence,PBM E-score
1,GTGCGTTA,0.0777
2,TGATACAA,-0.0289
3,ACCATTCT,-0.263
4,GACAGGAA,-0.0429
5,CACCCTGA,-0.243
6,CGATCCGA,0.176
7,CTGCGCAA,0.117
8,CAAAACAC,-0.00658
9,TAACTACA,-0.0813
10,CACCCTCC,0.0839
11,CTGTATGA,-0.0297
12,ACGTAGAG,-0.116
13,AAACCTTC,-0.155
14,AACGAGCT,-0.246
15,CCTCAGCG,0.0495
16,CCAGTAGC,0.143
17,GATTGTTA,0.0723
18,ATGAACTG,-0.305
19,AGTGGAAG,-0.124
20,CCCGACTC,0.33
21,AGCTACTG,-0.0614
22,TGATTACA,-0.0389
23,TAACGCCA,0.099
24,ATGCCTAG,0.0293
25,CAACCTCC,0.124

row,Sequence,PBM E-score
1,ATCAAGAA,-0.292
2,AGTATCCA,0.0226
3,ACCCCTAT,0.0068
4,AAGATGAA,-0.273
5,GTCAACGA,-0.189
6,CGACCTGC,0.181
7,CGATGTGC,0.042
8,CAGTGTGA,-0.254
9,ATCGCCAA,-0.162
10,GGGTCGCA,0.0989
11,ACCATGCG,-0.0973
12,ATGTCCTC,-0.147
13,CATTGGTA,0.14
14,GCTCTTGA,-0.1
15,CGCCTATC,0.0636
16,CGTGTGGC,-0.164
17,AGTCATGG,-0.218
18,ACTACCAG,0.0101
19,CTCACACC,0.158
20,AGAGAATG,-0.367
21,AATAAAGT,-0.111
22,CCCTGCTA,-0.129
23,GCTATGCC,-0.0017
24,TCTATCAA,-0.231
25,AACAAGTT,-0.0683

row,Sequence,PBM E-score
1,AGTGCAGA,0.0606
2,AGTACAGC,-0.146
3,AAAACCGC,0.305
4,AGGTCGTA,-0.087
5,ACTCCTCA,-0.218
6,ATACAATC,0.0508
7,AAACTCCA,-0.032
8,ACGACTAG,-0.194
9,CATGGCGC,0.18
10,CACGACGC,0.0771
11,ACGGGGCG,0.298
12,CGCCCGCC,0.258
13,CGCATCCG,0.103
14,AGATTTGC,-0.159
15,ATCCATTA,-0.0357
16,ATACATCG,0.0992
17,AACGCATG,-0.164
18,ACTGACTG,-0.314
19,TAATACTA,-0.0352
20,AACGGACA,0.298
21,AGGCGTAC,-0.073
22,ACGGAGCC,0.263
23,CCTAATGC,-0.0249
24,CTGATAAC,-0.0704
25,ATCTAAAA,-0.0858

row,Sequence,PBM E-score
1,CGCACTCC,0.1
2,AATTTTTC,-0.0701
3,ACCCGAAT,0.0962
4,CTAGTTTC,-0.0182
5,GAACCGCC,0.187
6,TCCCCGGA,0.203
7,CGTTCGCC,0.0418
8,CAGGGGAA,-0.281
9,CGTAAGGC,-0.0819
10,ACCTCGGC,0.164
11,ACAGTGCC,-0.00196
12,GACTTAGC,0.0466
13,ACTTGTAG,-0.0788
14,GAAAATTC,0.112
15,TCCTCGAA,-0.126
16,ATCCGCAC,0.124
17,CCATAAAG,-0.242
18,AGACGCAT,-0.0918
19,ATCTTGCC,0.0208
20,GGATACAC,-0.0245
21,CACAATCA,-0.158
22,TTACCCAA,-0.176
23,ACCACACT,0.0353
24,CGGTATCC,0.211
25,CTGAGGGC,-0.225

row,Sequence,PBM E-score
1,ATAAATAT,0.208
2,GACGAAGA,-0.0443
3,ATAATTGA,-0.142
4,TAGCTTGA,-0.0773
5,CCCTCGCG,-0.00053
6,TAGTGCGA,-0.277
7,ATCCCTCC,0.0425
8,CGTGTAAC,0.134
9,TCGCACCA,-0.0304
10,CGCACGGA,0.249
11,GAGATTAC,0.109
12,CTACACCC,-0.111
13,CGGTCGCC,0.109
14,GCGGCCAC,0.069
15,AGCTACCC,-0.161
16,CAGACATG,-0.136
17,ATTATGCC,0.228
18,ACAACCGA,0.191
19,CGACCGTC,0.0903
20,AGCGCGCG,0.0328
21,AATTCACT,0.0151
22,ATTGAAGA,-0.31
23,ATCCTCAC,-0.104
24,ACAGTCCT,-0.246
25,AAACCTCG,0.063

row,Sequence,PBM E-score
1,AGTGAGAA,-0.104
2,GCTCGCTA,-0.0566
3,AGTACCAT,-0.112
4,ATAGGAGG,-0.0657
5,TGGAATAA,-0.14
6,AGGGTACC,-0.132
7,GCGACATA,-0.0427
8,AAGATGGC,-0.0292
9,AATTCACC,0.19
10,GATATCCC,0.251
11,GATATGCA,-0.0266
12,CAATGTGC,-0.0848
13,ACGGATCC,0.211
14,ATGATCGA,-0.215
15,GTCTGGAA,-0.16
16,GACGTTAC,-0.0216
17,AAGGAGCG,0.0316
18,CAACTTAA,-0.0583
19,CCTGTGCG,0.00639
20,CGATGTTA,0.197
21,AGTAGAAA,0.0506
22,CACTTACC,0.139
23,GAAGTAAC,0.0534
24,TGCCATAA,-0.114
25,CGGGGAAA,0.385

row,Sequence,PBM E-score
1,GTGCAACA,-0.135
2,TACCCTAA,-0.108
3,AGGTTTAT,0.166
4,GTGTGATA,0.0767
5,AAACTGAT,-0.104
6,GTAACAAC,0.0449
7,AAGTCTTA,-0.12
8,GCTAACAA,0.00364
9,GGCGTGCA,-0.292
10,TACACACA,-0.226
11,CTAACAAA,-0.0818
12,GTGCATGA,-0.08
13,CTCATCGC,-0.0444
14,CGTCGATC,0.0531
15,ACCATAGA,-0.0312
16,AACCAGTA,-0.137
17,AGATTGAT,-0.0793
18,GCATAGTA,0.0728
19,AAGACGTG,-0.145
20,CATGTTGA,-0.0181
21,GCCGTCTA,0.147
22,ATCTGTCG,0.138
